Assay results as given in the supplement of paper PMC4967469.
By IC50 is meant the dose at which the fit gives 50% viability; a fit beyond the top or the lowest dose is shown as a bound at that dose. For AUC the same curve is integrated over the 256-fold range of doses and scaled to a fraction: 1 means no effect, lower means more sensitive. For part of these data: Where the top dose is marked as inferred, it was calculated from the reported fits.

How the values were obtained:
Experiment in all cases: Viability of human cancer cell lines after 72 h of drug (GDSC screen)
STF-62247 = compound: Cc1cccc(Nc2nc(-c3ccncc3)cs2)c1 [STF-62247]; conditions: top dose 10.24 µM; top dose inferred
Protocol: (§1)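 Human cancer cell lines in 384-well plates, medium with 10% serum, drug for 72 h over a 256-fold dose range (nine 2-fold or five 4-fold steps up to the top dose). Adherent lines were fixed and stained with the nucleic acid dye Syto60, suspension lines read with resazurin; signal relative to control wells, capped at 0 and 100%. One two-parameter sigmoid per drug and line, fitted in a mixed model over all curves with the slope shared within a line.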

Bortezomib = compound: CC(C)C[C@H](NC(=O)[C@H](Cc1ccccc1)NC(=O)c1cnccn1)B(O)O [Bortezomib]; conditions: top dose 0.02 µM
Protocol: as §1

CP724714 = compound: COCC(=O)NC/C=C/c1ccc2ncnc(Nc3ccc(Oc4ccc(C)nc4)c(C)c3)c2c1 [CP724714]; conditions: top dose 10.24 µM; top dose inferred
Protocol: as §1

Paclitaxel = compound: CC(=O)O[C@H]1C(=O)[C@@]2(C)[C@H]([C@H](OC(=O)c3ccccc3)[C@]3(O)C[C@H](OC(=O)[C@H](O)[C@@H](NC(=O)c4ccccc4)c4ccccc4)C(C)=C1C3(C)C)[C@]1(OC(C)=O)CO[C@@H]1C[C@@H]2O [Paclitaxel]; conditions: top dose 0.1024 µM
Protocol: as §1

CX-5461 = compound: Cc1cnc(CNC(=O)c2c(=O)c3ccc(N4CCCN(C)CC4)nc3n3c2sc2ccccc23)cn1 [CX-5461]; conditions: top dose 10.24 µM; top dose inferred
Protocol: as §1

Obatoclax mesylate = compound: COC1=CC(c2cc3ccccc3[nH]2)=N/C1=C\c1[nH]c(C)cc1C [Obatoclax mesylate]; conditions: top dose 16 µM
Protocol: as §1

Cell Line | AUC (STF-62247) | IC50 (STF-62247) [nM] | AUC (Bortezomib) | IC50 (Bortezomib) [nM] | AUC (CP724714) | IC50 (CP724714) [nM] | AUC (Paclitaxel) | IC50 (Paclitaxel) [nM] | AUC (CX-5461) | IC50 (CX-5461) [nM] | AUC (Obatoclax mesylate) | IC50 (Obatoclax mesylate) [nM]
8-MG-BA (glioma, adherent) | 0.933 | > 10200 | 0.281 | 0.314 | 0.967 | > 10200 | 0.476 | 5.54 | 0.887 | 10200 | 0.166 | 105
697 (lymphoblastic leukaemia, suspension) | 0.926 | > 10200 | 0.54 | 1.57 | 0.978 | > 10200 | 0.315 | 2.2 | 0.198 | 105 | 0.053 | < 62.5
A3-KAW (B-cell lymphoma, suspension) | 0.943 | > 10200 | 0.513 | 1.34 | 0.941 | > 10200 | 0.89 | 76.4 | 0.701 | 2040 | 0.144 | 112
A4-Fuk (B-cell lymphoma, suspension) | 0.986 | > 10200 | 0.466 | 1.01 | 0.983 | > 10200 | 0.435 | 4.21 | 0.622 | 1410 | 0.216 | 141
A101D (melanoma, adherent) | 0.981 | > 10200 | 0.24 | 0.181 | 0.981 | > 10200 | 0.568 | 10.2 | 0.981 | > 10200 | 0.091 | < 62.5
A253 (head and neck, adherent) | 0.988 | > 10200 | 0.446 | 0.895 | 0.98 | > 10200 | 0.663 | 17.9 | 0.976 | > 10200 | 0.376 | 459
A388 (skin, adherent) | 0.983 | > 10200 | 0.33 | 0.389 | 0.973 | > 10200 | 0.526 | 7.63 | 0.871 | > 10200 | 0.124 | < 62.5
ALL-PO (lymphoblastic leukaemia, suspension) | 0.908 | > 10200 | 0.623 | 2.79 | 0.945 | > 10200 | 0.521 | 7.35 | 0.644 | 1640 | 0.265 | 204
ALL-SIL (T-cell leukaemia, suspension) | 0.944 | > 10200 | 0.401 | 0.697 | 0.985 | > 10200 | 0.446 | 4.66 | 0.733 | 2620 | 0.102 | 66.1
AMO-1 (haematopoietic neoplasm, suspension) | 0.902 | 10000 | 0.341 | 0.487 | 0.971 | > 10200 | 0.532 | 7.71 | 0.939 | > 10200 | 0.317 | 334
ARH-77 (myeloma, suspension) | 0.966 | > 10200 | 0.576 | 2 | 0.973 | > 10200 | 0.73 | 28.1 | 0.865 | 8460 | 0.243 | 188
ATN-1 (T-cell lymphoblastic leukaemia, suspension) | 0.793 | 4350 | 0.645 | 3.07 | 0.978 | > 10200 | 0.485 | 5.83 | 0.899 | > 10200 | 0.272 | 237
BB30-HNC (head and neck, adherent) | 0.978 | > 10200 | 0.404 | 0.688 | 0.954 | > 10200 | 0.385 | 3.11 | 0.699 | 2290 | 0.064 | < 62.5
BB49-HNC (head and neck, adherent) | 0.972 | > 10200 | 0.431 | 0.752 | 0.974 | > 10200 | 0.969 | > 102 | 0.977 | > 10200 | 0.586 | 1890
BB65-RCC (kidney, adherent) | 0.973 | > 10200 | 0.329 | 0.385 | 0.981 | > 10200 | 0.707 | 27.1 | 0.968 | > 10200 | 0.252 | 172
BC-3 (B-cell lymphoma, suspension) | 0.832 | 5590 | 0.621 | 2.58 | 0.959 | > 10200 | 0.632 | 14.1 | 0.974 | > 10200 | 0.548 | 1330
BE2-M17 (neuroblastoma, adherent) | 0.967 | > 10200 | 0.782 | 8.62 | 0.948 | > 10200 | 0.903 | > 102 | 0.987 | > 10200 | 0.57 | 1560
BE-13 (lymphoblastic leukaemia, suspension) | 0.705 | 2320 | 0.597 | 2.27 | 0.972 | > 10200 | 0.512 | 6.9 | 0.755 | 3270 | 0.21 | 150
BL-41 (Burkitt lymphoma, suspension) | 0.938 | > 10200 | 0.484 | 1.14 | 0.868 | 5860 | 0.433 | 4.39 | 0.713 | 2150 | 0.069 | < 62.5
BV-173 (chronic myeloid leukaemia, suspension) | 0.985 | > 10200 | 0.755 | 6.08 | 0.981 | > 10200 | 0.555 | 8.87 | 0.211 | 103 | 0.195 | 144
Becker (glioma, adherent) | 0.975 | > 10200 | 0.575 | 2.06 | 0.975 | > 10200 | 0.553 | 9.11 | 0.978 | > 10200 | 0.566 | 1550
